According to the supplement of paper PMC4166925:
± gives the standard deviation of the averaged measurements. The full ranking holds about 33,000 sequences; the median of “E-score (dimensionless, -0.5 to 0.5)” is about -0.049, and the highest 2% start at about 0.37. The list shows a part of the results.

Each sequence was assayed on T1, PmTbr T-box DNA-binding domain (GST fusion) (assay: PBM E-score of 8-mer (E-score (dimensionless, -0.5 to 0.5)); Tbr is Tbrain of the sea star Patiria miniata (Pm) or the sea urchin Strongylocentrotus purpuratus (Sp); higher = stronger binding preference; most listed sequences are background and not binding sites). Conditions: the construct has about 5 more residues each side.
T1 sequence: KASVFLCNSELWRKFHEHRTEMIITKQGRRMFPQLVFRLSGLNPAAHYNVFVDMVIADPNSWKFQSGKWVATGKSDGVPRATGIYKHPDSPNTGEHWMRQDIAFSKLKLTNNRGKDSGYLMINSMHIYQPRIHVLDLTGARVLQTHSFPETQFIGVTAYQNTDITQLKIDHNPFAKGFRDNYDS
Method in brief: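 Universal Agilent oligonucleotide arrays, made double-stranded by primer extension, were incubated with 200 nM GST-fused Tbr T-box DNA-binding domain in PBS (pH 7.5). The protein was expressed in BL21 E. coli at 20 °C and purified by glutathione affinity chromatography. After scanning and quantification, the Universal PBM Analysis Suite assigned an enrichment E-score to each ungapped 8-mer, averaged over duplicate arrays.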

Sequence	PBM E-score of 8-mer
CATACTAA	-0.177 ± 0.061
CTATTCTC	-0.0482 ± 0.011
ACTGATAA	-0.125 ± 0.069
ACTCCTCT	0.071 ± 0.046
ATCTGTCC	-0.123 ± 0.029
CGGCTTAC	-0.117 ± 0.056
AAGGAAAT	-0.125 ± 0.081
CGCAGCAG	-0.127 ± 0.05
GTGCCGAA	0.256 ± 0.0053
AGGCAGGA	-0.184 ± 0.052
AGTTGTAC	-0.0597 ± 0.048
CGAGAGTC	-0.127 ± 0.043
AAGAACAG	-0.11 ± 0.011
CCATGGAG	-0.242 ± 0.027
CAAAGAAG	-0.127 ± 0.015
GACAGCAC	0.174 ± 0.005
AGCGGGTC	0.102 ± 0.07
GACAGAAA	-0.114 ± 0.055
AGGAGGGG	-0.0498 ± 0.052
GCACATTA	0.15 ± 0.015
AACTCGCA	0.316 ± 0.019
AAATTGAA	-0.207 ± 0.083
CTCACGAA	0.0478 ± 0.011
AAGAGAAC	-0.215 ± 0.027
CCTAGCCA	-0.105 ± 0.011

Sequence	PBM E-score of 8-mer
ATATGGGA	-0.236 ± 0.056
GATACTCC	-0.0399 ± 0.0054
AGCGAATC	-0.0899 ± 0.015
CAGTATAA	-0.0751 ± 0.07
AAACAGTC	-0.0618 ± 0.029
GCCTAGAC	-0.0277 ± 0.028
CGAGTCGA	0.00789 ± 0.045
TCGTTTCA	0.145 ± 0.031
ACATTGCC	0.126 ± 0.074
CGGGAGAG	-0.0145 ± 0.014
GATACCAA	-0.0695 ± 0.017
CTTGACGA	0.144 ± 0.0085
CATCGCGC	0.262 ± 0.0094
CTCGCAAC	0.324 ± 0.029
GCCTACGC	-0.0536 ± 0.045
AATAATAG	-0.0858 ± 0.098
CAAAAAAG	-0.158 ± 0.05
ACGTGGTA	0.0282 ± 0.0051
AAAGTATG	-0.163 ± 0.0052
CCCACGCA	-0.182 ± 0.089
ATTAATCC	-0.376 ± 0.0037
TCTGCTAA	0.148 ± 0.032
AGTTAATG	-0.103 ± 0.0068
ACGTGGTC	0.0292 ± 0.11
CTTGCTAC	0.0402 ± 0.038

Sequence	PBM E-score of 8-mer
ACTGGATA	-0.166 ± 0.015
AACCCCGT	-0.0397 ± 0.027
ACACTTAA	0.362 ± 0.031
ATGTAGGG	-0.366 ± 0.0054
AGGAACCC	-0.314 ± 0.027
ACCGCACT	-0.0142 ± 0.025
CCTATTTA	-0.0627 ± 0.026
CAACAGGA	-0.0583 ± 0.027
AATAACAG	0.0771 ± 0.072
AGTCGAAG	-0.0996 ± 0.05
ATACCCGC	-0.0707 ± 0.0099
CTACGGGA	-0.278 ± 0.021
ACCTCGCT	0.0927 ± 0.0016
CTTAAGGA	-0.206 ± 0.005
ATGCTCTC	-0.222 ± 0.022
ACGTGGCG	0.153 ± 0.0088
GTTCGAAC	-0.0923 ± 0.014
AGGTGCGG	0.434 ± 0.011
TATATAGA	-0.00256 ± 0.03
GGTGCACA	0.14 ± 0.044
ATCGAAAG	-0.205 ± 0.047
AAGACAGA	-0.173 ± 0.049
AAACATTT	-0.301 ± 0.027
CGTTAGAC	0.0732 ± 0.031
ATTCGCAC	0.4784 ± 0.002

Sequence	PBM E-score of 8-mer
AGGCCGCG	-0.0807 ± 0.04
CAAACTCG	0.00222 ± 0.032
AGTATGAG	-0.19 ± 0.022
ACCGGAAT	-0.127 ± 0.045
GAACGGAA	-0.109 ± 0.086
CAAATGAG	-0.127 ± 0.1
GATAGAGA	-0.0097 ± 0.0053
CGGATGCC	-0.239 ± 0.09
AATATTGG	-0.00679 ± 0.0075
AGCCCGTC	-0.0561 ± 0.0066
AAAACGAA	-0.098 ± 0.084
AATGGTTG	0.0395 ± 0.019
ACAGACGT	-0.00267 ± 0.048
GCCACCCC	0.208 ± 0.0084
CACATATA	0.26 ± 0.046
CATTGATA	-0.0676 ± 0.064
TGAAGTCA	-0.187 ± 0.036
GCCTATTA	-0.0261 ± 0.018
CACGACAG	0.143 ± 0.058
CCCTGGAC	-0.263 ± 0.0057
CATGAACA	-0.0713 ± 0.041
AATTCTCC	-0.118 ± 0.02
ACCACTAA	0.0837 ± 0.0058
AAGGTGGT	0.3415 ± 0.002
ACGACAAT	0.0237 ± 0.016

Sequence	PBM E-score of 8-mer
ATTAGAGA	-0.234 ± 0.007
CGAACAAG	-0.177 ± 0.019
CCAGTCAG	-0.104 ± 0.074
GCATGATA	-0.22 ± 0.021
AGTGTGTC	0.248 ± 0.0093
ACACCCGT	0.352 ± 0.0052
GTCCGAAA	-0.0702 ± 0.01
GGGCTATA	-0.166 ± 0.015
CGCAAGGA	0.0552 ± 0.019
CGCGGAGC	-0.021 ± 0.077
CATAGTGC	0.0881 ± 0.024
GGTTTGAA	-0.124 ± 0.029
AAGTTAGC	0.192 ± 0.011
ATATTCCG	-0.0495 ± 0.02
TGTGCACA	0.0718 ± 0.017
GCAGACGA	0.000765 ± 0.022
CCGTTAGA	0.0408 ± 0.021
CAACGTAG	-0.201 ± 0.0054
ATACGACG	0.0115 ± 0.015
CGCTCTTA	-0.285 ± 0.014
CTGACCCA	-0.218 ± 0.038
GCGGCACC	0.319 ± 0.025
GCTGCGAC	0.137 ± 0.0089
GCAAGTTA	-0.0125 ± 0.0034
CCCGTTGC	-0.144 ± 0.0081

Sequence	PBM E-score of 8-mer
ACAAACGG	-0.0712 ± 0.015
AGAGCTCC	-0.301 ± 0.036
GTAGGCTA	-0.101 ± 0.08
ATACAACA	0.0543 ± 0.036
ACTCACTA	0.144 ± 0.02
ATCGGCAG	-0.144 ± 0.013
CTTTAGCC	-0.123 ± 0.012
GGCCCCTA	-0.211 ± 0.011
CTGTGAAC	0.356 ± 0.0043
CGTTCGTC	-0.065 ± 0.017
ATAGTGGA	-0.00882 ± 0.0057
CATCGTGA	0.0195 ± 0.014
ATCAATAC	-0.0107 ± 0.0085
GAGATGCC	-0.112 ± 0.029
GACAACGA	0.0183 ± 0.0056
CCCTTATC	-0.014 ± 0.043
TAGGTCGA	-0.111 ± 0.085
ATGAAAAA	-0.115 ± 0.075
AAGGACGC	-0.323 ± 0.036
AGTTTCAG	-0.101 ± 0.063
ACCGGTCT	-0.234 ± 0.014
ACGGCTAC	-0.0169 ± 0.0055
CAGTTAAG	-0.0266 ± 0.09
CCGGACCC	0.0429 ± 0.0073
AAGAGTAG	-0.1 ± 0.014

Sequence	PBM E-score of 8-mer
ACATTCGC	0.267 ± 0.042
AAGCGCGT	0.133 ± 0.017
CGTGAAGC	0.231 ± 0.0064
TGAGGAAA	0.0379 ± 0.024
ACCAACGT	-0.094 ± 0.013
AAGTGGGT	0.0533 ± 0.0069
AGCCTAAA	-0.0212 ± 0.042
ATCAGGTA	-0.0936 ± 0.033
CCCTGTCG	-0.0758 ± 0.019
AAGTGGAC	-0.106 ± 0.015
ATAGTGAG	0.254 ± 0.015
CACATGCA	0.178 ± 0.027
AAGGGGAC	-0.147 ± 0.0055
ACATGCGC	0.117 ± 0.092
AATAAATT	-0.105 ± 0.0048
TGCTATAA	-0.032 ± 0.099
CACCATGG	0.149 ± 0.062
GTAATCTA	-0.186 ± 0.018
ACGCGCTC	0.103 ± 0.02
ATCTACAA	-0.227 ± 0.062
TGAAGTAA	-0.238 ± 0.016
AAAAGATC	-0.145 ± 0.072
